About 14,000 (4.5%) of roughly 310,000 compounds showed an effect of 50% or more. Effects have a minus sign here. Some of the results follow.
Molecular target: human ether-à-go-go-related gene (hERG) potassium channel (human, UniProt Q12809)
Test: primary screen, population patch clamp on CHO cells stably expressing hERG
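Further: peak tail current of the secondary pulse compared with the same well before compound.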

Sequence of human ether-à-go-go-related gene (hERG) potassium channel (Q12809 whole entry, looked up): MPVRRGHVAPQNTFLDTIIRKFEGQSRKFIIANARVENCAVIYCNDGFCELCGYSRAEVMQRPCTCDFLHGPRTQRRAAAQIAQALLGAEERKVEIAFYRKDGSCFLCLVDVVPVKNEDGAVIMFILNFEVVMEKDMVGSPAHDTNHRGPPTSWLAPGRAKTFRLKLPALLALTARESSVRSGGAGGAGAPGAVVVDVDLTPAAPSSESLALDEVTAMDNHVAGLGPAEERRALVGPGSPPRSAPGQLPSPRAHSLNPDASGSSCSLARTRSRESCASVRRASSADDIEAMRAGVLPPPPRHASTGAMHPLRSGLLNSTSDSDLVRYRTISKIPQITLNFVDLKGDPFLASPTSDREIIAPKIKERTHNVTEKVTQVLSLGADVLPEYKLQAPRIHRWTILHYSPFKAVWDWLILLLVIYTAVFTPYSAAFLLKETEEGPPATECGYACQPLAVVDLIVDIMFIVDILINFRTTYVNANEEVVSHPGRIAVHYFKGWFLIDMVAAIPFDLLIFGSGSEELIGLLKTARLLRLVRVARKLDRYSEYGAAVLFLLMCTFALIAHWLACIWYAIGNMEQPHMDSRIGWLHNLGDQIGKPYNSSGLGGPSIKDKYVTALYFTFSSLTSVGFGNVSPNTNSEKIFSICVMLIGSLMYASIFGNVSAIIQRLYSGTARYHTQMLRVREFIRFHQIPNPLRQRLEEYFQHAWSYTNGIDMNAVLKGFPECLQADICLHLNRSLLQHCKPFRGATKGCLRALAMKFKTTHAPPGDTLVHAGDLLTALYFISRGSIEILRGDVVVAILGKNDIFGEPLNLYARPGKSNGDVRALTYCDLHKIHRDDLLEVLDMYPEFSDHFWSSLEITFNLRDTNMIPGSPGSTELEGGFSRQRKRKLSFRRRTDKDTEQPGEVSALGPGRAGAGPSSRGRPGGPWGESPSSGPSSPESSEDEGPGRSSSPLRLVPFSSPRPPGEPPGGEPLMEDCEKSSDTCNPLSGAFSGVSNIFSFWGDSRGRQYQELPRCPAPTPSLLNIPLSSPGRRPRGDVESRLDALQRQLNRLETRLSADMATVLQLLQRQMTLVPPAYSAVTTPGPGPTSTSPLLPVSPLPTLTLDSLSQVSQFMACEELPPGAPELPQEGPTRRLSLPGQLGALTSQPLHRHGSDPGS

Compound | hERG current change (%, negative = inhibition) at 10uM
O=S(=O)(c1cccc(Br)c1)N1CCN(c2ccnc3cc(Cl)ccc23)CC1 | 8.43%
CS(=O)(=O)N(CC(=O)N1CCCCC1)c1ccc(Cl)c(C(F)(F)F)c1 | -3.01%
COc1ccc(C2(O)C(=O)Nc3ccc(C)cc32)cc1OC (stereo not drawn) | 12.8%
Cn1c(=O)c(C(=O)CSc2nnc(Nc3ccccc3)s2)c(N)n(Cc2ccccc2)c1=O | 14.1%
Cc1ccc(NC(=O)C2CC(=O)Nc3ncnn32)cc1Cl (stereo not drawn) | -0.0498%
O=S(=O)(c1ccc(Br)cc1)N1CCn2c(nc3ccccc32)C1 | -7.4%
O=C(Nc1ccc2nc(SCc3ccc(Cl)cc3)sc2c1)c1ccccc1C(=O)N1CCOCC1 | 21.9%
Cc1ccc(S(=O)(=O)N2CCCCC2)cc1NC(=O)CSc1ccc2c(c1)OCCO2 | -9.32%
CSc1nc(C)c2c(n1)N(c1ccc(C(F)(F)F)cc1)CC2 | -3.22%
Cc1ccc(C(=O)Nc2ccc(F)cc2F)o1 | 6.04%
CCCC(=O)N1CCC(CCC(=O)NC2CC2)CC1 | 7.63%
CC(C)C(C(=O)NC1CCCC1)N(Cc1ccco1)C(=O)CNS(=O)(=O)c1ccccc1 (stereo not drawn) | 26.3%
Cc1cc(NC(=O)Nc2cccc(Cl)c2)n(-c2ccccc2)n1 | 18.7%
CCc1ccc(CCC(=O)Nc2ccc(C(=O)O)cc2)o1 | 10.2%
CC(=O)N1CCC(N(CCN2CCOCC2)C(=S)Nc2c(C)cccc2C)CC1 | 8.51%
Cc1ccc(N=Nc2c(=O)[nH]n3c(=O)cc(C)[nH]c23)cc1 | 22.3%
O=[N+]([O-])c1ccc(N2CCSCC2)cc1O | 9.32%
CCOC(=O)c1c(NC(=S)N2CCOCC2)sc2c1CCN(C(=O)OCC)C2 | -1.31%
COc1cccc(CNC(=O)Cc2csc(NC(=O)Nc3ccccc3OC)n2)c1 | 10.6%

Compound | hERG current change (%, negative = inhibition) at 10uM
Cc1cccc(Oc2ccc(C(=O)NC3CCSC3=O)cn2)c1C (stereo not drawn) | -2.02%
Cl.Fc1ccc(COc2ccc(Br)cc2CNCC2CCCO2)cc1 (stereo not drawn) | -63.5%
CCCc1ccc(OCC(=O)NNC(=O)c2cccnc2)cc1 | -10.9%
CC1(C)Cc2cccc(OCC(=O)OCc3nnc(-c4ccccc4)o3)c2O1 | -7.37%
COc1cccc(N2CCN(S(=O)(=O)c3ccc(CN4C(=O)c5cccnc5C4=O)cc3)CC2)c1 | 21.3%
COc1ccc(CNC(=O)c2sc3nc4c(c(C(F)(F)F)c3c2N)CCC4)cc1OC | 10.2%
S=c1[nH]nc(Cc2ccccc2)n1-c1cccc2ccccc12 | -1.43%
CCSc1nnc(NC(=O)CCNS(=O)(=O)c2cc(Br)cnc2N)s1 | 0.00778%
C/C(=N\NS(=O)(=O)c1ccc(Cl)cc1)c1ccc(O)cc1 | -25.9%
CCC(C)NS(=O)(=O)c1ccc(OCC(=O)Nc2ccc3c(c2)OCO3)cc1 (stereo not drawn) | 6.02%
O=C(NC(NC(=S)N1CCOCC1)C(Cl)(Cl)Cl)c1ccc(Cl)cc1 (stereo not drawn) | -28.5%
O=S(=O)(c1ccccc1)c1cnn(-c2ccccc2)c1-c1ccc(Cl)cc1 | -0.722%
CSCCC(NC(=O)COc1ccccc1)C(=O)N1CC(C)OC(C)C1 (stereo not drawn) | -8.31%
COc1ccc(CNC(=O)c2ccc(Br)o2)cc1 | 1.82%
Cn1nc(SCC(=O)O)sc1=S | -3.5%
CCCCn1nnnc1SCC(=O)NNC(=O)C1CCCCC1 | -1.79%
NS(=O)(=O)c1ccc(CCNC(=O)/C=C/c2ccc([N+](=O)[O-])cc2)cc1 | -69.8%
CCN1CCN(c2ccc(S(=O)(=O)N3CCCCC3)cc2NC(=O)/C=C/c2ccc(OC)c(OC)c2)CC1 | -31.4%
CCN1C(=O)C(CC(=O)Nc2ccccc2)S/C1=N\c1ccccn1 (stereo not drawn) | 15%

Compound | hERG current change (%, negative = inhibition) at 10uM
CC1CCN(CCCn2c(=S)[nH]c3ccc(N4CCOCC4)cc3c2=O)CC1 | -18.3%
CCOc1cc(C2C(C#N)=C(N)SC(N)=C2C#N)ccc1OCCN1CCOCC1 | -1.44%
CCCCSC1=NN1c1nc(N)nc(C)c1CC | -25.8%
Cc1ccc(CNc2cc(C(=O)O)ccc2Cl)s1 | 11.9%
CCOc1cc2c(C#N)c(N3CCNCC3)nc(N)c2c(N)n1 | 5.41%
O=C1CCC(=O)N1c1ccccc1 | 20.8%
CCC(N=c1cc(-c2ccc(OC)cc2)oc2ccc(C)cc12)C(=O)O (stereo not drawn) | -74.4%
CC(C)C12CN3CC(C(C)C)(CN(C1)C3(C)C)C2=O | 13.4%
COc1ccccc1C(=O)COC(=O)COc1cccc2c1OC(C)(C)C2 | 17.3%
CCc1ccc(OS(=O)(=O)c2cn(C)c(=O)n(C)c2=O)cc1 | 4.65%
CCOC(=O)C1CCCN(C(=O)c2cc(S(=O)(=O)N(C)C)ccc2N2CCCC2)C1 (stereo not drawn) | -0.17%
CCCc1cc(=O)oc2cc(C)cc(OC(C)C(=O)NCc3ccncc3)c12 (stereo not drawn) | -69.5%
COC(=O)c1ccc(C)c(NC(=O)CSc2nc3[nH]c(=O)cc(O)c3s2)c1 | 32.4%
CC(=O)n1cc([C@@H]2C=C(C(=O)NCc3ccccc3)O[C@H](OCCCCO)C2)c2ccccc21 | -78.3%
Cc1ccc(NC(=O)CCNC(=O)c2ccc(Cl)cc2)cc1F | 9.19%
CC(=O)C1=C(O)C(=O)N(c2ccc(Br)cn2)C1c1ccccc1[N+](=O)[O-] (stereo not drawn) | 20.2%
CC(Cc1cccs1)NC(=S)Nc1ccccc1 (stereo not drawn) | -17%
COc1cc(C(=O)NC2CCCCC2)ccc1OCc1ccc(Cl)cc1Cl | 10.9%
COc1ccccc1N1CCN(C(=O)Cn2nc3n(C)c4ccccc4n3c(=O)c2=O)CC1 | -7.89%

— publication PMC4336329 (PLoS ONE, 2015)
